Experimental data as given in the supplement of paper PMC4604168 (melanoma cell lines).
The list shows a part of the results. Single values are uncertain, as repeats are few or missing.

Columns and labels:
Test in all cases: cell count relative to DMSO control; melanoma cells; higher = more viable cells
Conditions in all cases: library dose: low library concentration; 72 h
COLO792 = test system: COLO792
COLO800 = test system: COLO800
COLO829 = test system: COLO829
G361 = test system: G361
IPC-298 = test system: IPC-298
IST-MEL1 = test system: IST-MEL1
LB2518-MEL = test system: LB2518-MEL
LOXIMVI = test system: LOXIMVI
MEL-HO = test system: MEL-HO
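Further: cell number obtained by counting DAPI-stained nuclei in high-throughput microscope images with image analysis software, screen run in 1,536-well plates.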

Row | Compound | cell count (COLO792) | cell count (COLO800) | cell count (COLO829) | cell count (G361) | cell count (IPC-298) | cell count (IST-MEL1) | cell count (LB2518-MEL) | cell count (LOXIMVI) | cell count (MEL-HO)
1 | NC1(c2ccc(-c3nc4ccn5c(=O)[nH]nc5c4cc3-c3ccccc3)cc2)CCC1 + Cn1cc(/C=C2\C(=O)Nc3cccnc32)c2ccccc21 [GW441756] (first compound 0.4 µM, partner dose 0.4 µM) | 69.4% | 122% | 114% | 89.3% | 93.7% | 83.3% | 97.3% | 79.4% | 87%
2 | C=C(c1ccc(C(=O)O)cc1)c1cc2c(cc1C)C(C)(C)CCC2(C)C [Bexarotene] + CN(C)S(=O)(=O)c1ccc2c(c1)/C(=C/c1cc3c([nH]1)CCCC3)C(=O)N2 [SU6656] (first compound 2 µM, partner dose 0.4 µM) | 84% | 139% | 96.9% | 69.7% | 107% | 93% | 84.2% | 173% | 90.5%
3 | CN(c1ncccc1CNc1nc(Nc2ccc3c(c2)CC(=O)N3)ncc1C(F)(F)F)S(C)(=O)=O + O=C(Nc1ccccc1)c1cc([N+](=O)[O-])ccc1Cl [GW9662] (first compound 0.08 µM, partner dose 2 µM) | 94% | 165% | 82.5% | 93.5% | 101% | 114% | 97.5% | 67% | 95.3%
4 | CCCS(=O)(=O)Nc1ccc(F)c(C(=O)c2c[nH]c3ncc(Cl)cc23)c1F + C=CCn1c(=O)c2cnc(Nc3ccc(N4CCN(C)CC4)cc3)nc2n1-c1cccc(C(C)(C)O)n1 [MK1775] (first compound 0.08 µM, partner dose 0.02 µM) | 102% | 100% | 99.4% | 92.4% | 84.7% | 86.9% | 78.9% | 102% | 92.7%
5 | C=C(c1ccc(C(=O)O)cc1)c1cc2c(cc1C)C(C)(C)CCC2(C)C [Bexarotene] + OCCn1cc(-c2cnc3nnn(Cc4ccc5ncccc5c4)c3n2)cn1 [PF04217903] (first compound 2 µM, partner dose 1 µM) | 104% | 118% | 112% | 90% | 103% | 88.6% | 99.4% | 103% | 107%
6 | C=C(c1ccc(C(=O)O)cc1)c1cc2c(cc1C)C(C)(C)CCC2(C)C [Bexarotene] + O=S(=O)(c1ccccc1)N(CC(F)(F)F)c1ccc(C(O)(C(F)(F)F)C(F)(F)F)cc1 [T0901317] (first compound 2 µM, partner dose 1.4 µM) | 111% | 119% | 110% | 74.7% | 82.5% | 98.5% | 105% | 149% | 83.9%
7 | CS(=O)(=O)c1ccc(C(=O)Nc2ccc(Cl)c(-c3ccccn3)c2)c(Cl)c1 [vismodegib] + COC(=O)c1sccc1S(=O)(=O)Nc1ccc(Nc2ccccc2)cc1OC [GSK0660] (first compound 1 µM, partner dose 1 µM) | 118% | 115% | 117% | 98.9% | 106% | 97.6% | 118% | 134% | 102%
8 | C=C(c1ccc(C(=O)O)cc1)c1cc2c(cc1C)C(C)(C)CCC2(C)C [Bexarotene] + COC(=O)c1sccc1S(=O)(=O)Nc1ccc(Nc2ccccc2)cc1OC [GSK0660] (first compound 2 µM, partner dose 1 µM) | 102% | 118% | 94.2% | 91.2% | 95.3% | 92.8% | 101% | 129% | 91.3%
9 | CCCS(=O)(=O)Nc1ccc(F)c(C(=O)c2c[nH]c3ncc(Cl)cc23)c1F + C[C@@H]1CCN(C(=O)CC#N)C[C@@H]1N(C)c1ncnc2[nH]ccc12 [CP690550] (first compound 0.08 µM, partner dose 1 µM) | 93.9% | 89.4% | 115% | 84.8% | 96.5% | 97.7% | 101% | 131% | 85.2%
10 | CCCS(=O)(=O)Nc1ccc(F)c(C(=O)c2c[nH]c3ncc(Cl)cc23)c1F + COC(=O)c1sccc1S(=O)(=O)Nc1ccc(Nc2ccccc2)cc1OC [GSK0660] (first compound 0.08 µM, partner dose 1 µM) | 103% | 74.3% | 107% | 82.1% | 88% | 96.3% | 88.4% | 149% | 88.8%
11 | C=C(c1ccc(C(=O)O)cc1)c1cc2c(cc1C)C(C)(C)CCC2(C)C [Bexarotene] + COc1cc(Nc2ncc(F)c(Nc3ccc4c(n3)NC(=O)C(C)(C)O4)n2)cc(OC)c1OC [Tamatinib] (first compound 2 µM, partner dose 0.4 µM) | 75.1% | 106% | 76.9% | 65.6% | 90.9% | 92.9% | 94.9% | 81.9% | 84.2%
12 | CN(c1ncccc1CNc1nc(Nc2ccc3c(c2)CC(=O)N3)ncc1C(F)(F)F)S(C)(=O)=O + COC(=O)c1sccc1S(=O)(=O)Nc1ccc(Nc2ccccc2)cc1OC [GSK0660] (first compound 0.08 µM, partner dose 1 µM) | 90.6% | 147% | 78.1% | 100% | 96.6% | 97.2% | 92.2% | 101% | 89.6%
13 | CS(=O)(=O)c1ccc(C(=O)Nc2ccc(Cl)c(-c3ccccn3)c2)c(Cl)c1 [vismodegib] + O=C(O)c1ccc(-c2c[nH]c3ncc(-c4ccccc4)cc23)cc1C1CCCC1 [GSK650394] (first compound 1 µM, partner dose 0.16 µM) | 94% | 90.8% | 120% | 105% | 99.3% | 105% | 119% | 196% | 99.8%
14 | C=C(c1ccc(C(=O)O)cc1)c1cc2c(cc1C)C(C)(C)CCC2(C)C [Bexarotene] + CN(NC(=O)CC(=O)NN(C)C(=S)c1ccccc1)C(=S)c1ccccc1 [STA4783] (first compound 2 µM, partner dose 0.006 µM) | 66.6% | 71.8% | 75.4% | 88.1% | 90.9% | 67.4% | 73% | 120% | 88.5%
15 | CCCS(=O)(=O)Nc1ccc(F)c(C(=O)c2c[nH]c3ncc(Cl)cc23)c1F + Cc1cc([N+](=O)[O-])ccc1NS(=O)(=O)c1cc(Cl)ccc1Cl [FH535] (first compound 0.08 µM, partner dose 1 µM) | 88% | 96.4% | 114% | 86.8% | 89.3% | 95.1% | 78.8% | 169% | 97.8%
16 | NC1(c2ccc(-c3nc4ccn5c(=O)[nH]nc5c4cc3-c3ccccc3)cc2)CCC1 + Oc1cc(-c2nc(-c3ccccc3)[nH]c2-c2ccncc2)ccc1Cl [L779450] (first compound 0.4 µM, partner dose 0.2 µM) | 81.3% | 84.9% | 108% | 105% | 87.9% | 99.1% | 92.3% | 78.6% | 85.4%

Row | Compound | cell count (COLO792) | cell count (COLO800) | cell count (COLO829) | cell count (G361) | cell count (IPC-298) | cell count (IST-MEL1) | cell count (LB2518-MEL) | cell count (LOXIMVI) | cell count (MEL-HO)
17 | CN(c1ncccc1CNc1nc(Nc2ccc3c(c2)CC(=O)N3)ncc1C(F)(F)F)S(C)(=O)=O + O=C1NC(=O)/C(=C/c2ccc(-c3ccc(F)cc3O)o2)S1 [AS252424] (first compound 0.08 µM, partner dose 1 µM) | 73.2% | 99.3% | 58.2% | 91.5% | 95.6% | 97.4% | 90% | 84.5% | 94.9%
18 | CN(c1ncccc1CNc1nc(Nc2ccc3c(c2)CC(=O)N3)ncc1C(F)(F)F)S(C)(=O)=O + Cn1cncc1[C@@](N)(c1ccc(Cl)cc1)c1ccc2c(c1)c(-c1cccc(Cl)c1)cc(=O)n2C [tipifarnib] (first compound 0.08 µM, partner dose 0.01 µM) | 70.2% | 101% | 59.6% | 92.5% | 88.2% | 87.8% | 68% | 50.3% | 91.8%
19 | CS(=O)(=O)c1ccc(C(=O)Nc2ccc(Cl)c(-c3ccccn3)c2)c(Cl)c1 [vismodegib] + CCc1ccc(CCOc2ccc(CC3SC(=O)NC3=O)cc2)nc1 [pioglitazone] (first compound 1 µM, partner dose 2 µM) | 94.5% | 91.7% | 92.1% | 99.4% | 101% | 107% | 85.5% | 81.4% | 78.2%
20 | NC1(c2ccc(-c3nc4ccn5c(=O)[nH]nc5c4cc3-c3ccccc3)cc2)CCC1 + CCCCCCCCCCCC1=C(O)C(=O)C=C(O)C1=O [Embelin] (first compound 0.4 µM, partner dose 1.2 µM) | 79% | 76.9% | 79.4% | 87.7% | 100% | 97.3% | 97.4% | 115% | 77.4%
21 | NC1(c2ccc(-c3nc4ccn5c(=O)[nH]nc5c4cc3-c3ccccc3)cc2)CCC1 + O=C(Nc1ccccc1)c1cc([N+](=O)[O-])ccc1Cl [GW9662] (first compound 0.4 µM, partner dose 2 µM) | 79.7% | 137% | 82.5% | 102% | 100% | 101% | 91.8% | 98.7% | 97.4%
22 | CS(=O)(=O)c1ccc(C(=O)Nc2ccc(Cl)c(-c3ccccn3)c2)c(Cl)c1 [vismodegib] + NC(=O)Nc1cc(-c2cccc(F)c2)sc1C(=O)N[C@H]1CCCNC1 [AZD7762] (first compound 1 µM, partner dose 0.02 µM) | 92.8% | 80.5% | 106% | 121% | 109% | 112% | 138% | 65.7% | 95.2%
23 | CS(=O)(=O)c1ccc(C(=O)Nc2ccc(Cl)c(-c3ccccn3)c2)c(Cl)c1 [vismodegib] + COc1cc(N2CCC(N3CCN(C)CC3)CC2)ccc1Nc1ncc(Cl)c(Nc2ccccc2S(=O)(=O)C(C)C)n1 [NVP-TAE684] (first compound 1 µM, partner dose 0.08 µM) | 102% | 95.5% | 113% | 79.6% | 94.8% | 102% | 121% | 111% | 81.2%
24 | CN(c1ncccc1CNc1nc(Nc2ccc3c(c2)CC(=O)N3)ncc1C(F)(F)F)S(C)(=O)=O + O=C(O)C(=O)Nc1sc2c(c1C(=O)O)CCNC2 [TCS401] (first compound 0.08 µM, partner dose 1.66667 µM) | 93.7% | 97.9% | 72.9% | 93.9% | 89.4% | 95.5% | 82.5% | 73.9% | 76.9%
25 | NC1(c2ccc(-c3nc4ccn5c(=O)[nH]nc5c4cc3-c3ccccc3)cc2)CCC1 + C=CCn1c(=O)c2cnc(Nc3ccc(N4CCN(C)CC4)cc3)nc2n1-c1cccc(C(C)(C)O)n1 [MK1775] (first compound 0.4 µM, partner dose 0.02 µM) | 58.3% | 135% | 99.5% | 84.9% | 94.5% | 95.7% | 82.7% | 92.2% | 82.8%
26 | CCCS(=O)(=O)Nc1ccc(F)c(C(=O)c2c[nH]c3ncc(Cl)cc23)c1F + COc1cc(N2CCC(N3CCN(C)CC3)CC2)ccc1Nc1ncc(Cl)c(Nc2ccccc2S(=O)(=O)C(C)C)n1 [NVP-TAE684] (first compound 0.08 µM, partner dose 0.08 µM) | 85% | 96.4% | 112% | 86.5% | 91.2% | 92.3% | 114% | 109% | 90.1%
27 | CN(c1ncccc1CNc1nc(Nc2ccc3c(c2)CC(=O)N3)ncc1C(F)(F)F)S(C)(=O)=O + O=C(CCCCCCC(=O)Nc1ccccc1)NO [vorinostat] (first compound 0.08 µM, partner dose 0.08 µM) | 91% | 92.6% | 63.9% | 80.6% | 96.2% | 104% | 114% | 75.3% | 96.4%
28 | CS(=O)(=O)c1ccc(C(=O)Nc2ccc(Cl)c(-c3ccccn3)c2)c(Cl)c1 [vismodegib] + Oc1cc(-c2nc(-c3ccccc3)[nH]c2-c2ccncc2)ccc1Cl [L779450] (first compound 1 µM, partner dose 0.2 µM) | 105% | 78% | 136% | 73.9% | 92.4% | 102% | 114% | 125% | 99.3%
29 | C=C(c1ccc(C(=O)O)cc1)c1cc2c(cc1C)C(C)(C)CCC2(C)C [Bexarotene] + CC(C)CCN1c2nc(Nc3cc(F)c(O)c(F)c3)ncc2N(C)C(=O)C1C [BID1870] (first compound 2 µM, partner dose 0.2 µM) | 98.8% | 111% | 89.1% | 70.3% | 88.7% | 90.1% | 102% | 140% | 96.9%
30 | NC1(c2ccc(-c3nc4ccn5c(=O)[nH]nc5c4cc3-c3ccccc3)cc2)CCC1 + O=C(O)c1ccc(-c2c[nH]c3ncc(-c4ccccc4)cc23)cc1C1CCCC1 [GSK650394] (first compound 0.4 µM, partner dose 0.16 µM) | 76.6% | 81.7% | 94.6% | 95.6% | 92.1% | 92.1% | 108% | 84.9% | 79.3%
31 | C=C(c1ccc(C(=O)O)cc1)c1cc2c(cc1C)C(C)(C)CCC2(C)C [Bexarotene] + O=C1NC(=O)/C(=C/c2ccc(-c3ccc(F)cc3O)o2)S1 [AS252424] (first compound 2 µM, partner dose 1 µM) | 77.8% | 90.7% | 105% | 91.5% | 93.9% | 89.5% | 102% | 99.9% | 102%
